# Assay results as given in the supplement of paper PMC3334620.
# The full ranking holds about 33,000 sequences; the median of “E-score (-0.5 to 0.5)” is about -0.012, and the highest 2% start at about 0.27. The list shows a part of the results.
# Molecular target: T1, Vhr1 (UniProt P40522)
# T1 sequence: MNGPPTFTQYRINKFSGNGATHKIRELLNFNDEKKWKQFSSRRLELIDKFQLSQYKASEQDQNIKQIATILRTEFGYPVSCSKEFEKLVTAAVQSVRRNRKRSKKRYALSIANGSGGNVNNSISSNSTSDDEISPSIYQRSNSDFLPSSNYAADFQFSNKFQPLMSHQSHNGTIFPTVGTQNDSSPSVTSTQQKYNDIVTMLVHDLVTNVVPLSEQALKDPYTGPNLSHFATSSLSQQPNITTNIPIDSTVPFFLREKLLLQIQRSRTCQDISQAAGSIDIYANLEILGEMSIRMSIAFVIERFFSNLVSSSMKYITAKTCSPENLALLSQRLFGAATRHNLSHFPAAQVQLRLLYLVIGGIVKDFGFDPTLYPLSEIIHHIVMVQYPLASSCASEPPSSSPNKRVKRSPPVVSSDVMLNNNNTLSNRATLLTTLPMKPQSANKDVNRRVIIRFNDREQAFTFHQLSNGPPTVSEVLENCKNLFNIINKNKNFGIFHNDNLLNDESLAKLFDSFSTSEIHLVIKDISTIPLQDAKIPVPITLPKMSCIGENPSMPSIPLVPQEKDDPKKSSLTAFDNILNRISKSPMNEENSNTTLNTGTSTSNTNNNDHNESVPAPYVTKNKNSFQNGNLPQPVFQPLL
# Experiment: PBM E-score (8-mer binding enrichment) (E-score (-0.5 to 0.5)); higher = stronger / more preferred TF binding; most listed sequences are background and not binding sites
# Settings: protein concentration: 200 nM; construct: GST-full length
# Procedure, shortened: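 Yeast transcription factors carrying a GST tag, as full-length proteins or DNA-binding domains, were produced by PURExpress in vitro transcription/translation. About 100-200 nM protein was applied to universal all-10-mer Agilent arrays, double-stranded by primer extension on fresh or once-stripped slides. Bound protein was detected with fluorescent anti-GST, and scans were normalised with masliner. The Universal PBM Analysis Suite gave each ungapped eight-base word, pooled with its reverse complement, an E-score, a modified Wilcoxon-Mann-Whitney statistic.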
row,Sequence,PBM E-score
1,TCCTCCGA,-0.056
2,ATATCAGA,-0.159
3,GTAGATAA,0.0601
4,CGTGTTTC,-0.143
5,TCGCCGAA,-0.0481
6,ATAACCAG,0.116
7,ATCGCCAG,0.0655
8,AAGCGTAG,-0.0898
9,AATGAGAT,0.115
10,CCAAAGAC,-0.186
11,CAAGTCGA,-0.062
12,AGCCCGAA,-0.151
13,CGCACGAA,0.0799
14,GACTTCAA,0.00793
15,ACAGCGTG,0.0256
16,ACTTGGTG,0.0982
17,CCGGTGTC,0.105
18,AGAGAACT,-0.222
19,AAGCTATG,-0.0787
20,TCGCTCCA,-0.0939
21,GCACAACA,-0.0373
22,ACCACTGC,0.00472

row,Sequence,PBM E-score
1,AGGACGCA,0.201
2,CCCCGCGG,0.0864
3,GGTCGCTA,-0.0588
4,GGTTTATA,0.12
5,GATCGTCA,-0.0592
6,AAGAGCAG,-0.104
7,ACTCGGAT,0.186
8,ACCTATAT,0.159
9,TACGACCA,0.0823
10,AGAGCACA,0.216
11,CCGGTAGA,-0.0664
12,AATCGCTC,-0.0865
13,AAGTTATG,0.122
14,ATCTACGA,-0.0284
15,ACTGGGAA,0.193
16,GAAGTATC,-0.0172
17,ACGTGAGT,0.197
18,CAACCAGG,0.00678
19,CAATTAGA,0.142
20,CACGTGAC,0.108
21,CCATCGGC,-0.116
22,CTCTTCAC,0.0873

row,Sequence,PBM E-score
1,AATAATCA,0.203
2,GCTTTTGA,-0.222
3,CATCATGG,0.152
4,AGCTCCAG,-0.115
5,CCGCGATA,0.0454
6,CATTTTAA,-0.137
7,GCACGAGA,-0.0543
8,GCCGGTTA,0.0586
9,CGAATGCG,0.00337
10,ACTGTCCC,-0.0218
11,AAGAGGGC,-0.268
12,TAGTCGCA,0.309
13,CAGGGCCA,-0.226
14,CTGATTTC,-0.00794
15,AACGCTAT,-0.171
16,ACGATCCT,0.00746
17,CTCAGCCA,0.106
18,TAATAAAA,-0.0705
19,GCCAAAAC,-0.215
20,CACACCCG,0.181
21,AGGTCAAC,-0.15
22,CCTGGCCA,-0.0646

row,Sequence,PBM E-score
1,ATCGTCGA,-0.0285
2,GCTAGAAC,-0.112
3,CGTCCGCC,-0.0676
4,GATGCGGA,0.117
5,CCTGGAAC,-0.0218
6,GGGTGCAC,0.0155
7,CCAGATCA,0.0888
8,GTCTCTCA,0.0336
9,ATAATACC,0.212
10,CAAATTAG,0.0518
11,AAATGTTA,-0.121
12,GGGCTGCA,0.0511
13,GGCTGTAC,-0.0289
14,ATCGACCC,0.236
15,AAGGATGG,0.0659
16,GGTAATGA,0.023
17,ACGTTGTA,-0.133
18,GGGACACC,-0.0207
19,CAAGTGCC,-0.169
20,CTCGGGAC,-0.118
